This list was built around the results that the source calls inconclusive (neither active nor inactive); the mix of calls is not that of the screen. For some of these results: Where the call is inconclusive, the potency comes from a doubtful curve fit. For some of these results: “Side channel” marks fits to a control or component signal instead of the main read-out. Active and inactive are the calls of the source. Unless noted, calls come from the whole dose curve; as a rule, active = well fitted curve in the direction sought with a large enough effect; inconclusive = small, poorly fitted or top-dose-only effect, or another doubt; inactive = no such curve, though single readings can be large; an effect the other way counts as inactive or inconclusive.
Key:
[1] = Cell Viability - BJ (AID 421; calls by dose curve;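 note: potency is the fitted concentration of half-maximal effect; cells exposed to compound for 40 hours at 37 °C before readout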); details: BJ fibroblast viability, qHTS
In short: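 Quantitative HTS: ATP depletion in BJ cells after 40 hr compound exposure in complete culture medium, detected with CellTiter-Glo; AC50 from standard Hill fits.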

[2] = Cell Viability - NIH 3T3 (AID 541); details: NIH 3T3 cell viability, qHTS; activity change, negative = cytotoxicity: at 92.2 µM (top of the series);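 note: plate controls were DMSO alone for no effect and tamoxifen positive control for full effect; nearly all actives have a fitted effect of over 25% in size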
In short: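 Mouse NIH 3T3 fibroblasts, 1000 cells/well, rested 5 hr at 37 °C, then exposed to compound for 40 hr at 37 °C in complete medium. Viability read as intracellular ATP by CellTiter-Glo luminescence; AC50 from Hill-equation fits of concentration-response data.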

[3] = Cell Viability - SH-SY5Y (AID 544); details: SH-SY5Y neuroblastoma cell viability; at 92.2 µM (top of the series);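 note: 0% = DMSO alone and -100% = 100 µM tamoxifen; nearly all actives have a fitted effect of over 55% in size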
In short: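 SH-SY5Y human neuroblastoma cells (1500/well) incubated 5 h, then compound-treated 40 h at 37 °C in complete medium. Viability read as intracellular ATP by CellTiter-Glo luminescence after 20 min; AC50 from Hill-equation fits of qHTS concentration-response.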

[4] = Cell Viability - LYMP2-001 (AID 921); note: potency is the fitted concentration of half-maximal effect; nearly all actives have a fitted effect of over 70% in size
In short: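 qHTS, 1536-well; lymphoblastoid cells, 24 hr compound, 37 C; ATP by CellTiter-Glo, 30 min RT; luminescence; Hill-fit AC50.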

[5] = MultiTox-Fluor Cytotoxicity Assay - LYMP1-001 - Live Cells (AID 947);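 note: 0% = DMSO only and full inhibition = tetraoctylammonium bromide control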
[6] = Cell Viability - LYMP2-003 (AID 965); details: LYMP2-003 lymphoblastoid cell viability;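 note: potency is the fitted concentration of half-maximal effect; cells exposed to compounds for 24 h before reading; nearly all actives have a fitted effect of over 50% in size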
In short: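 Acute cytotoxicity is scored as a concentration-dependent drop in intracellular ATP, measured by luciferase luminescence in human lymphoblastoid cells treated for 24 hours at 37 C. AC50 values derive from Hill-equation modelling.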

[7] = Cell Viability - LYMP2-011 (AID 969); details: LYMP2-011 lymphoblastoid cells viability; note: potency is the fitted concentration of half-maximal effect; nearly all actives have a fitted effect of over 60% in size
In short: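 2500 cells/well in complete medium, compound-treated 24 h at 37 C. Viability read as intracellular ATP by CellTiter-Glo luminescence after 30 min at room temperature. AC50 from Hill fits of qHTS concentration-response data.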

[8] = Cell Viability - LYMP2-015 (AID 971); details: LYMP2-015 lymphoblastoid cell viability; activity change, negative = lower viability: at 92.2 µM (top of the series); note: potency is the fitted concentration of half-maximal effect; nearly all actives have a fitted effect of over 55% in size
In short: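 LYMP2-015 human lymphoblastoid cells (2500/well) in complete medium, compound-treated 24 h at 37 C; viability read as cellular ATP by CellTiter-Glo luminescence after 30 min at room temperature. AC50 from Hill-equation fits of qHTS concentration-response data.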

[9] = Cell Viability - LYMP2-017 (AID 972); details: LYMP2-017 lymphoblastoid cell viability; note: potency is the fitted concentration of half-maximal effect; nearly all actives have a fitted effect of over 55% in size
In short: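 LYMP2-017 human lymphoblastoid cells (2500/well) settled 5 hr at 37 C, then exposed to compound 24 hr at 37 C in complete medium. Viability taken as intracellular ATP by CellTiter-Glo luminescence after 30 min at RT; AC50 from Hill fits.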

[10] = Cell Viability - LYMP2-019 (AID 973); note: potency is the fitted concentration of half-maximal effect; nearly all actives have a fitted effect of over 55% in size
In short: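 Human lymphoblastoid LYMP2-019 cells (2500/well) preincubated 5 h at 37 C, then treated 24 h at 37 C in complete medium. Viability by CellTiter-Glo ATP luminescence after 30 min at room temperature; AC50 from Hill fits.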

[11] = Cell Viability - LYMP2-023 (AID 975); details: LYMP2-023 lymphoblastoid cell viability
In short: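 LYMP2-023 human lymphoblastoid cells, 2500/well, preincubated 5 hr at 37 C, then compound-treated 24 hr at 37 C in complete medium. CellTiter-Glo luminescence (ATP) after 30 min at room temperature; AC50 from Hill-equation fits; tetraoctylammonium bromide positive control.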

[12] = Cell Viability - LYMP2-025 (AID 976); details: LYMP2-025 lymphoblastoid cell viability; activity change, negative = cytotoxicity: at 92.2 µM (top of the series); note: potency is the fitted concentration of half-maximal effect
In short: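 Human lymphoblastoid LYMP2-025 cells, 2500/well, exposed 24 h at 37 C in complete medium in 1536-well qHTS. Viability as cellular ATP by CellTiter-Glo luminescence; AC50 from Hill fits of concentration-response data.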

[13] = Cell Viability - LYMP2-002 (AID 977); details: LYMP2-002 lymphoblastoid cell viability, qHTS; note: potency is the fitted concentration of half-maximal effect
In short: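 Luminescent ATP readout (CellTiter-Glo, 30 min room temperature) after 24 h compound exposure at 37 C of a human lymphoblastoid line, 2500 cells/well. AC50 values derived by standard Hill fitting of qHTS concentration-response data.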

[14] = Cell Viability - LYMP2-010 (AID 981)
In short: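 Human lymphoblastoid LYMP2-010 cells (2500/well) treated 24 h at 37 C in complete medium; viability read as intracellular ATP by CellTiter-Glo luminescence. AC50 from Hill fits of concentration-response data; tetraoctylammonium bromide positive control.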

[15] = Cell Viability - LYMP2-012 (AID 982)
[16] = Cell Viability - LYMP2-014 (AID 983); note: potency is the fitted concentration of half-maximal effect; nearly all actives have a fitted effect of over 50% in size
In short: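 LYMP2-014 human lymphoblastoid cells, 2500/well, treated 24 h at 37 C in complete medium; viability by CellTiter-Glo ATP luminescence after 30 min at room temperature. AC50 from Hill fits of qHTS concentration-response; tetraoctylammonium bromide positive control.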

[17] = Cell Viability - LYMP2-016 (AID 984)
In short: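 Acute toxicity in a Coriell human lymphoblastoid line is scored as loss of intracellular ATP over 24 h of treatment in complete medium. CellTiter-Glo signal is fitted across concentrations with the Hill equation to give AC50.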

[18] = Cell Viability - LYMP2-018 (AID 985); details: LYMP2-018 lymphoblastoid cells, viability (qHTS);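 note: potency is the fitted concentration of half-maximal effect; compound exposure lasted 24 hr at 37 °C; nearly all actives have a fitted effect of over 50% in size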
In short: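 Human lymphoblastoid LYMP2-018 cells, 2500/well, settled 5 hr at 37 C then exposed to compound 24 hr at 37 C; intracellular ATP measured by CellTiter-Glo luminescence. AC50 from Hill-equation concentration-response fits.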

[19] = biological target: Ubiquitin carboxyl-terminal hydrolase 1 (Homo sapiens) (UniProt O94782); assay: Inhibitors of USP1/UAF1: Pilot qHTS (AID 504865);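 note: rhodamine fluorescence freed from ubiquitin-rhodamine substrate followed over time; top concentration of the series differs between compounds; % is set by controls: 0 for no effect and ±100 for the full control effect; nearly all actives have a fitted effect of over 35% in size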
Chain of UniProt O94782 (O94782 whole entry, looked up): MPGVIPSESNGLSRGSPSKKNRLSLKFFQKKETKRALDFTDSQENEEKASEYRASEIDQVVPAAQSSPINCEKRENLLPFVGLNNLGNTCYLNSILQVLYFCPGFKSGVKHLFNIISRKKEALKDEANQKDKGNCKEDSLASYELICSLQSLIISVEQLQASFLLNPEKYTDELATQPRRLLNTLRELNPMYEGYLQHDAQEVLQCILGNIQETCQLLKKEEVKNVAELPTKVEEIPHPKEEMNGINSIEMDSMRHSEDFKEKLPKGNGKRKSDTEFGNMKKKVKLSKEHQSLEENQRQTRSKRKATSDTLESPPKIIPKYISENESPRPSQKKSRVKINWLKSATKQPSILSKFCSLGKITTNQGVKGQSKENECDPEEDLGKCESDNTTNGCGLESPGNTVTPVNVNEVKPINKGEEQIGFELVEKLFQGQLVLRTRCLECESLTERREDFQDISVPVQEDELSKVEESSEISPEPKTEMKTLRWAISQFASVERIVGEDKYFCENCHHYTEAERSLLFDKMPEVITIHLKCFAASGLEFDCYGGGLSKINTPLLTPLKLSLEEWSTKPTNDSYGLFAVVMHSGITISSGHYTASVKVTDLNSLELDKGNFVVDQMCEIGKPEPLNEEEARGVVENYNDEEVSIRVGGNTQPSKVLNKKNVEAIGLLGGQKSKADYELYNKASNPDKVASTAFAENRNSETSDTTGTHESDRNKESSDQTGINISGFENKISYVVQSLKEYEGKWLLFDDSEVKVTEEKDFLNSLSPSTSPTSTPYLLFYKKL
In short: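 Kinetic fluorescence assay: 1nM USP1/UAF1, 15 min compound preincubation, then 150nM Ub-Rho; 480/540 nm.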

[20] = biological target: Bile acid receptor (Homo sapiens) (UniProt Q96RI1); assay: qHTS assay for small molecule antagonists of farnesoid X receptor signaling (AID 588526; calls by dose curve; note: % is set by controls: 0 for no effect and ±100 for the full control effect); details: HEK293T FXR-UAS-bla, beta-lactamase ratio, antagonist mode; activity change, negative = inhibition: at 76.7 µM (top of the series)
In short: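 Concentration-response titrations were fitted to the Hill equation for half-maximal inhibition and maximal response, with data normalised to 50 uM chenodeoxycholic acid and DMSO control wells. Cells: FXR-UAS-bla HEK293T, dialyzed FBS.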

[21] = biological target: Peroxisome proliferator-activated receptor delta (Homo sapiens) (UniProt Q03181); assay: qHTS assay for small molecule antagonists of peroxisome proliferator-activated receptor delta signaling (AID 588535; active = well fitted inhibition curve with a large enough effect in the signal ratio, with a control signal flat, not every such curve was filed as active; inconclusive = small, poorly fitted or top-dose-only effect, or effect the other way, or a change in a side signal; inactive = no such curve, though single readings can be large or run the other way; the % refers to the signal ratio; note: potency is the fitted concentration of half-maximal effect); details: HEK293T PPARd-UAS-bla, beta-lactamase FRET ratio, 18 h; activity change, negative = inhibition: at 76.7 µM (top of the series)
Chain of UniProt Q03181 (Q03181 whole entry, looked up): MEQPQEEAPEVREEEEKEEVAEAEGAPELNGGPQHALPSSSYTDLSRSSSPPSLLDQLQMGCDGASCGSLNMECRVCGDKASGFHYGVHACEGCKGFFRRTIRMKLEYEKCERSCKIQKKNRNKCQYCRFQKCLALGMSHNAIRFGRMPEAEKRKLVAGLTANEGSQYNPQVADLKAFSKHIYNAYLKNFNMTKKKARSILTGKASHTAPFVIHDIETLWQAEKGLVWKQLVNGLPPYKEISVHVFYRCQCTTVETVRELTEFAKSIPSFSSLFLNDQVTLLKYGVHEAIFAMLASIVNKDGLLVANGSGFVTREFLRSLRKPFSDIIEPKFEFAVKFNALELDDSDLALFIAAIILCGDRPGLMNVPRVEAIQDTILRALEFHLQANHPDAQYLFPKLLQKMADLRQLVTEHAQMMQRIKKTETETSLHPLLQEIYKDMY
In short: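 Reporter: UAS-bla under PPAR-delta response element, HEK293T host. Medium: 2% charcoal/dextran FBS. Dosing: titration, 18 hrs, 37 C. Detection: CCF4, 2 hrs RT, 405 ex/460 and 530 em.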

[22] = biological target: Peroxisome proliferator-activated receptor gamma (Homo sapiens) (UniProt P37231); assay: qHTS assay for small molecule agonists of peroxisome proliferator-activated receptor gamma signaling (AID 588536; active = well fitted curve in the direction sought with a large enough effect in the signal ratio, with a control signal flat, not every such curve was filed as active; inconclusive = small, poorly fitted or top-dose-only effect, or effect the other way, or a change in a side signal; inactive = no such curve, though single readings can be large or run the other way; the % refers to the signal ratio; note: potency is the fitted concentration of half-maximal effect); details: HEK293 PPARg-UAS-bla, beta-lactamase ratio, 16 h; activation: at 76.7 µM (top of the series), percent of rosiglitazone response, DMSO as zero
In short: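 HEK293 UAS-bla reporter line, 1% charcoal/dextran FBS; titration, 16 h, 37 C; CCF4 loading 2 h RT; fluorescence 460/530 nm. Normalized to rosiglitazone 2 uM = 100%, DMSO = 0%.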

[23] = biological target: Vitamin D3 receptor (Homo sapiens) (UniProt P11473); assay: qHTS assay for small molecule antagonists of vitamin D receptor signaling (AID 588541; calls by dose curve;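 note: receptor activated by calcitriol during compound treatment; % is set by controls: 0 for no effect and ±100 for the full control effect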); details: HEK293T VDR-UAS-bla, beta-lactamase ratio, antagonist mode; activity change, negative = inhibition: at 76.7 µM (top of the series)
[24] = biological target: Thyroid hormone receptor beta (Homo sapiens) (UniProt P10828); assay: qHTS assay for small molecule agonists of thyroid hormone receptor beta signaling (AID 588545; calls by dose curve; note: potency is the fitted concentration of half-maximal effect); details: TR-UAS-bla GripTite HEK 293, beta-lactamase ratio, agonist mode, 18 h; activation: at 76.7 µM, percent of T3 response, DMSO as zero
Chain of UniProt P10828 (P10828 whole entry, looked up): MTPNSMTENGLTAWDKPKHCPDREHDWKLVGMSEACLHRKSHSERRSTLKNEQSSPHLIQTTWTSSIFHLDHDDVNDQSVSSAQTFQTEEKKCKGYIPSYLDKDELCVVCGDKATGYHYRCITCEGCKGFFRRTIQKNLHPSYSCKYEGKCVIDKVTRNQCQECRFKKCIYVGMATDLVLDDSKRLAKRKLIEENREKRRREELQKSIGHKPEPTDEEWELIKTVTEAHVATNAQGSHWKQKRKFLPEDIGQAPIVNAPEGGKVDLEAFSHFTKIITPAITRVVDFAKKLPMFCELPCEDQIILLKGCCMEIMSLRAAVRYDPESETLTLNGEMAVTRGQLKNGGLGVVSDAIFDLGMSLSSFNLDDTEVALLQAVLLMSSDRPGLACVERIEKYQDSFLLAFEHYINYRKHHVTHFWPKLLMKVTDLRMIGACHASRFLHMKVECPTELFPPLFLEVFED
In short: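 Agonist activity was read as beta-lactamase CCF4 fluorescence (405 ex, 460/530 em), scaled between DMSO (0%) and 10 nM T3 (100%), then Hill-fitted for EC50 and efficacy. HEK 293 TR-UAS-bla cells in 2% charcoal/dextran FBS medium were exposed 18 h at 37 C.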

[25] = biological target: Luciferin 4-monooxygenase (Photinus pyralis) (UniProt P08659); assay: Biochemical firefly luciferase enzyme assay for NPC (AID 624030);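 note: purified P. pyralis luciferase at 10 nM with luciferin and ATP substrate; 0% = DMSO and -100% = full luciferase inhibition by PTC124 control; nearly all actives have a fitted effect of over 70% in size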
Chain of UniProt P08659 (P08659 whole entry, looked up): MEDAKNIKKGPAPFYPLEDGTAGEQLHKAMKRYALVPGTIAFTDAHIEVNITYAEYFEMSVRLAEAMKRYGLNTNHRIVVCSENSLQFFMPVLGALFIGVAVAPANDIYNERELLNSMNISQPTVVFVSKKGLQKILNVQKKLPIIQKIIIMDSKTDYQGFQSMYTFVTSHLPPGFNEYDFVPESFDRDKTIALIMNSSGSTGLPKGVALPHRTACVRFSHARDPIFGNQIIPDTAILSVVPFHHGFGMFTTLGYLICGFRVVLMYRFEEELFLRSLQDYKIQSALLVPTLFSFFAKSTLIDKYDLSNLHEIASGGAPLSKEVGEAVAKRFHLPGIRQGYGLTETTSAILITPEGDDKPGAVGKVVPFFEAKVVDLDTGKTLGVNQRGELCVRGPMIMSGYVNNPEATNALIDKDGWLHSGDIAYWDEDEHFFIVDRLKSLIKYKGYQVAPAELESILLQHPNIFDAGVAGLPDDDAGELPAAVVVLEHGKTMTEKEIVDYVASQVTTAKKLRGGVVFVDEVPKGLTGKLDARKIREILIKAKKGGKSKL
In short: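 Counter-screen for direct inhibition of the luciferase enzyme by approved-drug library compounds, run at 10 nM enzyme in 50 mM Tris acetate (final). Luminescence was read within 5 min of enzyme-buffer addition and normalized to PTC124 versus DMSO (0%).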
Tags give direction and shape of the fitted curve or compound fluorescence and quenching.

## O=C1c2cccc(O)c2C(=O)c2c(O)cccc21
[1]
  Potency: inactive: > 92 µM
[2]
  activity change, negative = cytotoxicity: inconclusive: -65.5%
[3]
  viability change, negative = cytotoxic: inconclusive: -37.3%
[4]
  Potency: inconclusive: 20 µM [cytotoxic, partial curve, poor fit]
[5]
  Potency: inactive
[6]
  Potency: inconclusive: 31.6 µM [cytotoxic, full curve]
[7]
  Potency: inconclusive: 50.1 µM [cytotoxic, single point]
[8]
  Potency: inconclusive: 50.1 µM [cytotoxic, partial curve, poor fit]
[9]
  Potency: inconclusive: 39.8 µM [cytotoxic, partial curve]
[10]
  Potency: inconclusive: 50.1 µM [cytotoxic, partial curve, poor fit]
[11]
  Potency: inconclusive: 39.8 µM [cytotoxic, partial curve, poor fit]
[12]
  Potency: inconclusive: 50.1 µM [cytotoxic, partial curve, poor fit]
[13]
  Potency: inconclusive: 79.4 µM [cytotoxic, partial curve, poor fit]
[14]
  Potency: inconclusive: 50.1 µM [cytotoxic, partial curve]
[15]
  Potency: inconclusive: 79.4 µM [cytotoxic, partial curve, poor fit]
[16]
  Potency: inconclusive: 50.1 µM [cytotoxic, single point]
[17]
  Potency: inconclusive: 79.4 µM [cytotoxic, single point]
[18]
  Potency: inconclusive: 50.1 µM [cytotoxic, partial curve, poor fit]
[19]
  Potency: inactive
[20]
  activity change, negative = inhibition: inconclusive: -31.6%
[21]
  Potency: inconclusive: 44.7 µM [side channel, rising, partial curve, poor fit]
[22]
  Potency: inconclusive: 10 µM [activator, full curve]
[23]
  activity change, negative = inhibition: inconclusive: 11.4%
[24]
  Potency: inconclusive: 0.891 µM [side channel, falling, full curve, poor fit]
[25]
  Potency: inactive

— PubChem BioAssay (NCATS)
